Hit rate of the full screen: of about 280,000 compounds, about 1,100 (0.39%) were called active. Inconclusive means that the source gave no clear call. Such entries were picked first, then a sample of the others. Calls follow the shape of the dose curve; as a rule, active = well fitted inhibition curve with a large enough effect; inconclusive = small, poorly fitted or top-dose-only effect, or effect the other way; inactive = flat fitted curve, though single readings scatter. Potencies of inconclusive entries are doubtful fits and often do not repeat.
Target: Microtubule-associated protein tau (Homo sapiens) (UniProt P10636)
Test: qHTS for Inhibitors of Tau Fibril Formation, Fluorescence Polarization; also: nearly all actives have a fitted effect of over 55% in size
Settings: K18 P301L tau heparin fibrillization, Alexa594 FP, 6 h; series mostly up to 57.7 µM
In short: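 Compound effects on tau fibrillization are measured by Alexa 594 fluorescence polarization (ex 555, em 632 nm). K18 P301L tau is used at 15 uM with 0.24 uM labeled tracer, and 20 uM heparin induces aggregation over 6 hr at 37 C.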
Potency is read from the fitted curve at half-maximal effect; tags tell the direction and shape of the fitted curve.

UniProt P10636, sequence (P10636 whole entry, looked up): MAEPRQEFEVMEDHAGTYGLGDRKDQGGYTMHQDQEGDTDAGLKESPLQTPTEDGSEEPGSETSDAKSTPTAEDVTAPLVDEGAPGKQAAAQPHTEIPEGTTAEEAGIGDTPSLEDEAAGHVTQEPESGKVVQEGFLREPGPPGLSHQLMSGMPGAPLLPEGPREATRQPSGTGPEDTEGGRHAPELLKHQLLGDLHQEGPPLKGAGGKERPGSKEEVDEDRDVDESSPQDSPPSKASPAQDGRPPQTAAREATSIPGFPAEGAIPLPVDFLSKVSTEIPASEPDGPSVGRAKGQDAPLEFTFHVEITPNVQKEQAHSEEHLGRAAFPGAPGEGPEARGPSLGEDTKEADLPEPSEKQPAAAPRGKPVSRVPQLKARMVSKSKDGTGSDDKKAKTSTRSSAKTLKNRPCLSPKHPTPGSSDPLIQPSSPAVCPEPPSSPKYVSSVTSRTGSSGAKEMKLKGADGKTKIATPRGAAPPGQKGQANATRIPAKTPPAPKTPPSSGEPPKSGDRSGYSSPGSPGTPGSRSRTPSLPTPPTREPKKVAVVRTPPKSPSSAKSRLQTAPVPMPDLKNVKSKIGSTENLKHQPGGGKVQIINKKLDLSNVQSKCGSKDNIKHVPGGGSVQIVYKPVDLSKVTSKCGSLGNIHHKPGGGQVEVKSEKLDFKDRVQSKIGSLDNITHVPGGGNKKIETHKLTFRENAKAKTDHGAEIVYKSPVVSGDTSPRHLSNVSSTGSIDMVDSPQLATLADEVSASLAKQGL

Potency, inconclusive:
CCOC(=O)c1ccc(NC(=O)CN(c2ccc(C)cc2)S(=O)(=O)c2ccc(OC)cc2)cc1 10 µM [inhibitor, partial curve]
Cc1nn(-c2ccccc2)c2c1C1(C(=O)N(C)c3ccccc31)C(C#N)=C(N)O2 (stereo not given) 39.8 µM [inhibitor, single point]
O=C(Nc1cccc(Cl)c1)OCc1cn(-c2ccc(Cl)cc2)nn1 17.8 µM [inhibitor, single point]
C[C@@H](C(=O)Nc1ccc2ccccc2c1)[C@H]1C[C@]1(C)[C@H](NS(=O)(=O)c1ccc2ccccc2c1)c1ccccc1 28.2 µM [inhibitor, single point]
CCOc1ccc(CNC(=O)C2CCN(C3=NS(=O)(=O)C(c4ccc(C)cc4)=C3CC)CC2)cc1 14.1 µM [activator, single point]
O=C(COC(=O)CCCN1C(=O)c2cccc3cccc(c23)C1=O)Nc1cccc(C(F)(F)F)c1 2.82 µM [inhibitor, partial curve, poor fit]
Oc1cccc2c(NC(=S)Nc3ccc(SC(F)F)cc3)cccc12 44.7 µM [inhibitor, single point]
COc1ccccc1N1CSC2=C(C#N)C(c3ccc(SC)cc3)CC(=O)N2C1 (stereo not given) 39.8 µM [inhibitor, partial curve, poor fit]
CCOC(=O)c1ccc(N2C(=O)c3n[nH]c(-c4cccs4)c3C2c2ccc(O)c(OC)c2)cc1 (stereo not given) 12.6 µM [inhibitor, partial curve]
COc1ccc(NC(=O)c2ccco2)cc1NC(=O)c1cccnc1 0.251 µM [inhibitor, partial curve]
CCOc1cc(S(=O)(=O)n2cc(-c3ccc(F)cc3)c(N)n2)cc(OCC)c1OCC 28.2 µM [inhibitor, single point]
COc1ccc(C2SCCN2S(=O)(=O)c2ccc(NC(C)=O)cc2)cc1 (stereo not given) 31.6 µM [inhibitor, single point]
O=C(Cn1c(=O)n(Cc2cccs2)c(=O)c2cccnc21)Nc1ccccc1F 39.8 µM [inhibitor, single point]
CCc1ccc(-n2c(=O)c3cccnc3n2CC(=O)NCc2ccc(F)cc2)cc1 12.6 µM [inhibitor, partial curve]
CC1=CC(=C(C#N)c2nc3ccccc3s2)C=C(C)N1Cc1ccco1 5.01 µM [activator, full curve, poor fit]
Oc1c(C(Nc2nccs2)c2ccc(C(F)(F)F)cc2)ccc2cccnc12 (stereo not given) 1.78 µM [activator, full curve, poor fit]
CCOc1cccc2cc(-c3nc4sc(C(=O)Nc5ccc(C)cc5)c(C)c4c(=O)[nH]3)c(=O)oc12 31.6 µM [inhibitor, partial curve, poor fit]
Cc1ccccc1NC(=S)N(CCCN1CCCCC1)Cc1ccco1 0.141 µM [inhibitor, full curve, poor fit]
Cc1cccc(C(=O)Nc2nc(-c3nnn(-c4cc(F)ccc4F)c3C)ns2)c1 22.4 µM [inhibitor, partial curve, poor fit]
COc1ccc2c(c1)CCc1cc(C(=O)N3CCN(c4ccc(N5CCOCC5)nn4)CC3)sc1-2 14.1 µM [inhibitor, partial curve]
Cc1ccccc1NC(=S)N/N=C1\CC(C)(C)Oc2ccc(O)cc21 8.91 µM [activator, partial curve]
CCc1ccccc1NC(=O)CSc1nc2c(oc3ccccc32)c(=O)n1-c1ccccc1F 44.7 µM [inhibitor, single point]
CCCOc1ccc(NC(N)=O)cc1OCCC 22.4 µM [activator, single point]
COc1cccc(OC)c1CN(C)C(=O)c1cnccc1C(F)(F)F 1.58 µM [activator, partial curve, poor fit]
CCOc1ccc(C2C(C(=O)Nc3ccc(Cl)cc3)=C(C)Nc3nc(C(F)(F)F)nn32)cc1 (stereo not given) 14.1 µM [inhibitor, partial curve]
O=C(Nc1ccc2c(c1)C(=O)N(CC1CCCO1)C2=O)c1ccc(Cl)c(Cl)c1 (stereo not given) 15.8 µM [inhibitor, partial curve]
COc1ccc(NS(=O)(=O)c2cc(NC(=O)C3CC3)ccc2N2CCCCC2)cc1 39.8 µM [inhibitor, single point]
N#C/C(=C\c1c(Oc2ccc(Br)cc2)nc2ccccn2c1=O)c1nc2ccccc2s1 5.62 µM [inhibitor, single point]
COC(=O)c1cccc(NC(=O)Nc2cc(C(=O)NCc3cccc(F)c3)ccc2N2CCCC2)c1 8.91 µM [activator, partial curve]
Oc1ccc(NCc2ccc(OCc3ccccc3Cl)cc2)cc1 25.1 µM [inhibitor, partial curve]
COC(=O)c1cc(NC(=O)CCc2c(C)nc3cc(-c4ccccc4)nn3c2C)cc(C(=O)OC)c1 20 µM [inhibitor, partial curve]
Cc1ccc(S(=O)(=O)n2nc(-c3ccc(Cl)cc3)nc2NCc2ccco2)cc1 25.1 µM [inhibitor, single point]
CCOc1cccc(C=Nc2cc(C)cc(C)c2O)c1O 39.8 µM [inhibitor, single point]
CCOc1cc(CNc2ccc(O)cc2)cc(Br)c1OCc1ccccc1F 39.8 µM [inhibitor, single point]
CCN1CCCC1CNC(=O)c1cc(S(N)(=O)=O)ccc1OC (stereo not given) 8.91 µM [inhibitor, single point]
Cc1ccc(C2C(C#N)=C(N)Oc3c2oc(CO)cc3=O)o1 (stereo not given) 44.7 µM [inhibitor, single point]
Cc1c(C(c2ccccc2O)c2c(C)n(C)n(-c3ccccc3)c2=O)c(=O)n(-c2ccccc2)n1C 0.0631 µM [inhibitor, full curve, poor fit]
COc1ccc(-c2nc(N)ncc2Oc2ccccc2Br)c(O)c1 31.6 µM [inhibitor, partial curve, poor fit]
COc1ccc(-c2cc(C(F)(F)F)nc(SCC(=O)NCc3ccc(Cl)cc3)n2)cc1 14.1 µM [inhibitor, partial curve]
CC(C)OCc1cc(CN2CCN(c3ccccc3)CC2)c(O)c2ncccc12 8.91 µM [activator, single point]
Cc1ccnc(NC(=O)c2c(O)c3ccccc3n(C)c2=O)c1 2.24 µM [inhibitor, partial curve, poor fit]
COC(=O)Cn1c(=NC(=O)c2sc3ccccc3c2Cl)sc2cc(S(N)(=O)=O)ccc21 15.8 µM [inhibitor, partial curve]
O=C(Nc1ccc(Cl)c(C(F)(F)F)c1)N1CCCC(O)C1 (stereo not given) 22.4 µM [inhibitor, single point]

Potency, inactive:
COc1ccc(CCNC(=O)CN(c2ccc(C)cc2)S(=O)(=O)c2ccc(OC)cc2)cc1
COc1ccc(C2CC(=O)c3cc(-c4nc(-c5ccc(Cl)cc5)cs4)c(=O)[nH]c3C2)cc1 (stereo not given)
O=C(NC(NNc1ccc([N+](=O)[O-])cc1)(C(F)(F)F)C(F)(F)F)c1ccccc1Cl
CCOC(=O)c1[nH]ncc1[C@@H]1C[C@H]2CN(Cc3cccc(Cl)c3)C(=O)[C@]23CCCN13
COc1ccc(Oc2c(C=O)c3ccccc3n2C)cc1
O=C(Nc1nc2n(n1)C(c1ccc(F)cc1)C=C(c1ccc(Cl)cc1)N2)c1ccco1 (stereo not given)
CCc1nc(-c2cc(S(=O)(=O)N3CCN(c4ccc(F)cc4)CC3)ccc2OC)no1
COC(=O)c1c(NC(=O)C2CC2)sc(C(=O)Nc2ccccc2)c1C
Cc1ccccc1NC(=S)NCc1cccs1
COc1ccc(C(=O)NCC(c2cccnc2)N2CCN(c3ccc(F)cc3)CC2)cc1 (stereo not given)
CC(=O)NCC(=O)OCC(=O)N1c2ccccc2Sc2ccccc21
CN1CCN(C(=O)c2nc3ccc(Cl)cc3[nH]2)CC1
NC(N)=N/N=C/c1cccc([N+](=O)[O-])c1O
Cc1ccccc1N1C(S)=C(C#N)C(=O)NC12CCCCC2
Cn1c(SCC(=O)Nc2ccc3nc(SCC(=O)N4CCCC4)sc3c2)nnc1-c1ccccc1
Cc1ccc(N2CC(NC(=O)C(=O)c3c[nH]c4ccccc34)CC2=O)cc1 (stereo not given)
Cc1ccc(-c2ccc(CCC(=O)O)n2CC(=O)O)cc1
Cc1[nH]n(-c2ccccc2)c(=O)c1C(C[N+](=O)[O-])c1ccccc1Cl (stereo not given)
CCOc1ccc(CCNC(=O)c2cnc3sc(N4CCCCCC4)nn3c2=O)cc1
CC(=O)N[C@H](c1ccccc1)[C@@]1(C)C[C@@H]1[C@@H](C)C(=O)Nc1ccc2ccccc2c1
CC(C)N(C)CCOC(=O)/C=C/c1ccccc1
CC1=C(C(=O)Nc2ccc(F)cc2F)C2(CCCCCC2)OC1=O
